PMC4336329 (PLoS ONE, 2015)
Out of some 310,000 compounds screened, about 2,200 (0.71%) showed an effect of 50% or more. The effect is printed as a negative number. The list shows a part of the results.

Biological target: human ether-à-go-go-related gene (hERG) potassium channel (human, UniProt Q12809)
Test: primary screen, population patch clamp on CHO cells stably expressing hERG

Chain of human ether-à-go-go-related gene (hERG) potassium channel (Q12809 whole entry, looked up): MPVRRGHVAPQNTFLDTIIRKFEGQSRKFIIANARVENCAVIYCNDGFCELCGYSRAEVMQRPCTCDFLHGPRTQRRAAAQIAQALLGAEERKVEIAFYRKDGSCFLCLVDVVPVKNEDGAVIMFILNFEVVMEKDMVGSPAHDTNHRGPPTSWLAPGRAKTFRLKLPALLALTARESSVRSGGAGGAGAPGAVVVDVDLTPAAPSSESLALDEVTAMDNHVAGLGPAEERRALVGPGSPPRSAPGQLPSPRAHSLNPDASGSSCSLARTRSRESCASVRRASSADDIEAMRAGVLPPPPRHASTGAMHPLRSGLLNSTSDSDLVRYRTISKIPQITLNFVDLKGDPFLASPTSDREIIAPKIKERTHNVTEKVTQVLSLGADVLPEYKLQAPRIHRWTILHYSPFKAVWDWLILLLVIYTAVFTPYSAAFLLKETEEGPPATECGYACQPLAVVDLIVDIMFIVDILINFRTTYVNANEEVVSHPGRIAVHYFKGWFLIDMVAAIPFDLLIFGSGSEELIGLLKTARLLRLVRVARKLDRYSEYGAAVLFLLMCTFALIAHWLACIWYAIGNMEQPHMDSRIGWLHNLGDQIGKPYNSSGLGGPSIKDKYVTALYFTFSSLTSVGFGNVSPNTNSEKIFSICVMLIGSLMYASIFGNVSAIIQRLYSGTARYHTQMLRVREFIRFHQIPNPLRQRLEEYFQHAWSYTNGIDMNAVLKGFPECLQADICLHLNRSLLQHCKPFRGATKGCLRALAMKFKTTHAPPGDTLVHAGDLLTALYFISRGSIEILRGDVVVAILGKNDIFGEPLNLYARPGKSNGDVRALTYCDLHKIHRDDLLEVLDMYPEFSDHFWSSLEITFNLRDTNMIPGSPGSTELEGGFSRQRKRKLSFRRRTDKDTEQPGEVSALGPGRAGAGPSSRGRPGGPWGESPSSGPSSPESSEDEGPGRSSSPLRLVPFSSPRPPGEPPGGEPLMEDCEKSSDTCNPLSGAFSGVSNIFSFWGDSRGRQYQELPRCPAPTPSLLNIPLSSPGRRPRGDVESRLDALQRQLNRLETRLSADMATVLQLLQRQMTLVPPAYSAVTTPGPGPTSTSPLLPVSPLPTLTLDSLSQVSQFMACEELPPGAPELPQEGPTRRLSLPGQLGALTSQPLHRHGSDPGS

| SMILES | hERG current change (%, negative = inhibition) at 1uM |
| --- | --- |
| c1ccc(Cn2nnc(-c3ccccc3)n2)cc1 | -9.62% |
| CC(Nc1ccccc1N1CCCCC1)C(=O)N1CCc2ccccc21 (stereo not drawn) | 1.66% |
| COc1ccc2sc(N(CCCN(C)C)C(=O)c3ccc(S(=O)(=O)N4CCCc5ccccc54)cc3)nc2c1.Cl | 10.3% |
| Cc1cc(C(=O)OCC(=O)NC(C)C)c2ccccc2n1 | 3.18% |
| Cc1ccc(C(=O)N/C(=C\c2cn(C)c3ccccc23)C(=O)NCCCN2CCOCC2)cc1 | 8.31% |
| CCCNC(=O)C(Cc1ccc(OC)cc1)NC(=O)c1ccc(Cl)cc1 (stereo not drawn) | 9.62% |
| CCOC(=O)c1c(C)n(C)c2ccc(OC)c(NC(=O)CCN3CCC(Cc4ccccc4)CC3)c12 | -5.72% |
| CCn1c(SCC(=O)NC(=O)NC(C)(C)C)nc2ccccc21 | 17.1% |
| O=C(Nc1ccc(Cl)cc1)Nc1ccc(N2CCOCC2)cc1 | 14.1% |
| CC(=O)c1c(C)[nH]c(C(=O)Nc2ccccc2N2CCOCC2)c1C | 1.92% |
| O=C(COc1ccc(S(=O)(=O)N2CCCCC2)cc1)NCc1cccnc1 | 3.12% |
| Cc1cc(C)c(NC(=O)c2ccccc2N(C)S(C)(=O)=O)c(C)c1 | 8.21% |
| N#CCC(=N)N1CCN(c2cccc(Cl)c2)CC1 | -2.69% |
| COc1cc(O)cc2c1C(=O)OC(C)CCCC(=O)CCC/C=C\2 (stereo not drawn) | 13.6% |
| CC1CC(NC(=O)C2C3CCC(O3)C2C(=O)O)CC(C)(C)C1 (stereo not drawn) | 7.28% |
| COc1ccc(/C=C2\SC(=S)N(CCC(=O)NC3C=CS(=O)(=O)C3)C2=O)cc1 (stereo not drawn) | -4.5% |
| CN(CC(=O)Nc1ccccc1Br)C(=O)C(Cc1ccccc1)NC(=O)c1ccccc1 (stereo not drawn) | 8.52% |
| CC(=O)Nc1ccc(N/C=C(\C#N)S(=O)(=O)c2ccc(Cl)cc2)cc1 | 11.1% |
| COc1cc(CN2CCN(S(=O)(=O)c3ccc(NC(C)=O)cc3)CC2)cc(OC)c1O.O=C(O)C(=O)O | 6.99% |
| CCOC(=O)c1c(NC(=O)COc2ccccc2)sc2c1CC(C)(C)NC2(C)C | 10.8% |
| Cc1cccc(NC(=O)COC(=O)c2cc(C)n(C3CC3)c2C)c1 | 8.99% |
| CS(=O)(=O)c1cnc(-c2cccnc2)nc1N | 6.79% |
| O=Cc1ccccc1Oc1ccccc1 | 10.7% |
| CCc1ccc(NC(=O)C(CC)Sc2nc3cc4c(cc3c(=O)n2Cc2ccco2)OCO4)cc1 (stereo not drawn) | 8.57% |
